{"source": "PubChem BioAssay AID504444", "about": "(National Center for Advancing Translational Sciences (NCATS), 2011)", "note": "The whole screen tested about 360,000 compounds, of which about 7,500 (2.1%) were called active. Another 20% or so got no clear call; they are omitted. The call rests on the fitted dose curve; in most records, active means well fitted inhibition curve with a large enough effect; inconclusive means small, poorly fitted or top-dose-only effect, or effect the other way; inactive means flat fitted curve, though single readings scatter. The entries are a selection whose mix differs from that of the whole data set. Some structures have more than one record in an assay (separate samples or runs), and their calls can disagree. On the % scale 0 is the no-effect control and ±100 the full control effect; potency means the concentration at half of the fitted maximal effect."}
{"experiment": "Nrf2 qHTS screen for inhibitors; further: nearly all actives have a fitted effect of over 60% in size", "conditions": "A549 ARE-Fluc reporter, luciferase luminescence, 18-24 h; series mostly up to 46 µM; activity change, negative = inhibition: at the top concentration", "procedure,_shortened": "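Cells were seeded and rested 2 h, then exposed to compounds for 18-24 h. CellTiter-Fluor was read first as a viability measure. BugLite was added 15 min before the final luminescent read of ARE-luciferase activity in A549 cells.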"}
{"smiles": "C(=C/c1nccc2c1[nH]c1ccccc12)/c1ccc2c(c1)OCO2", "activity change, negative = inhibition": "inactive: -14.5%"}
{"smiles": "O=C1N(c2ccccc2C(F)(F)F)O[C@]1(c1ccccc1)C1CCCC1", "activity change, negative = inhibition": "inactive: 3.38%"}
{"smiles": "CC1(C)c2[nH]c3ccccc3c2C[C@@H]2C(=O)N(Cc3ccc(F)cc3)C(=O)N21", "activity change, negative = inhibition": "inactive: -23.1%"}
{"smiles": "Cn1nc(-c2cccnc2)nc2c(=O)n(C)c(=O)nc1-2", "Potency": "active: 7.31 µM"}
{"smiles": "COC(=O)c1ccccc1NC(=O)CCCn1nc(C)c2c(C)n(-c3ccccc3)nc2c1=O", "activity change, negative = inhibition": "inactive: -4.68%"}
{"smiles": "C=CCC[C@@H](Cc1ccc(F)cc1)C(=O)OC[C@@H](Cc1c[nH]c2ccccc12)NC(=O)[C@@H](CC=C)CC(=O)N[C@H](CO)Cc1ccccc1", "activity change, negative = inhibition": "inactive: -1.89%"}
{"smiles": "CCO[C@H]1OC(C(=O)NCc2ccccc2)=C[C@@H](c2coc3ccccc3c2=O)[C@@H]1CCCO", "activity change, negative = inhibition": "inactive: -15.8%"}
{"smiles": "O=C(O)c1ccc(Cl)c(S(=O)(=O)N2CCCCCC2)c1", "Potency": "active: 25.9 µM"}
{"smiles": "C[C@H]1CC[C@@]2(O[C@@H](CCO)C[C@@H](O)[C@@H]2O)O1", "activity change, negative = inhibition": "inactive: -11.3%"}
{"smiles": "Cc1ccc2c(c1)c1c(c(=O)n(-c3ccccc3)c(=O)n1CC(=O)NCC1CCCO1)n2C", "note": "(stereo not drawn)", "activity change, negative = inhibition": "inactive: 7.49%"}
{"smiles": "COC(=O)C(C)Sc1ccc2nnc(CCNS(=O)(=O)c3ccc(C)cc3)n2n1", "note": "(stereo not drawn)", "activity change, negative = inhibition": "inactive: 4.02%"}
{"smiles": "COc1cc(OC)c2c(-c3ccccc3)cc(=O)oc2c1C(CCN1CCCC1)c1ccc2c(c1)OCO2", "note": "(stereo not drawn)", "activity change, negative = inhibition": "inactive: 21%"}
{"smiles": "CCOC(=O)/C(=C\\c1ccc(N2CCC(c3ccccc3)=N2)cc1)C(C)=O", "activity change, negative = inhibition": "inactive: 116%"}
{"smiles": "CN(C)CCN(Cc1ccccc1)S(=O)(=O)c1csc(C(N)=O)c1", "activity change, negative = inhibition": "inactive: 0.0968%"}
{"smiles": "COc1ccc(N(CC(C)C)S(=O)(=O)c2nnc(NC(=O)c3ccco3)s2)cc1", "activity change, negative = inhibition": "inactive: -7.82%"}
{"smiles": "C=CC[C@H](CC(=O)N[C@H](CO)Cc1ccccc1)C(=O)N[C@H](COC(=O)[C@H](CC=C)CC(=O)OC(C)(C)C)Cc1c[nH]c2ccccc12", "activity change, negative = inhibition": "inactive: 9.36%"}
{"smiles": "O=C(O)CCn1cc(/C=C\\C(=O)c2ccc(Cl)cc2)c(-c2cccc(Br)c2)n1", "activity change, negative = inhibition": "inactive: -33.3%"}
{"smiles": "Cc1n[nH]c(C)c1S(=O)(=O)N1CCCC(C(=O)Nc2ccc(Br)cc2)C1", "note": "(stereo not drawn)", "activity change, negative = inhibition": "inactive: 10.6%"}
{"smiles": "CC1=CC(C)(C)NC(=S)N1c1ccccc1C", "activity change, negative = inhibition": "inactive: -1.61%"}
{"smiles": "COc1ccc(NC(=O)N(C)C[C@H]2Oc3c(NS(=O)(=O)c4cccs4)cccc3C(=O)N([C@@H](C)CO)C[C@@H]2C)cc1", "activity change, negative = inhibition": "inactive: 20%"}
{"smiles": "COCCNC(=O)CCc1c(C)nc2c(c(C)nn2-c2ccc(C)cc2)c1C", "activity change, negative = inhibition": "inactive: -17.5%"}
{"smiles": "C[C@@H]1CCC[C@]2(O[C@@H](CCO)C[C@@H](O)[C@@H]2O)O1", "activity change, negative = inhibition": "inactive: 18.4%"}
{"smiles": "CC(C)(C)OC(=O)C[C@@H]1C/C=C\\C[C@H](CC(=O)N[C@H](CO)Cc2ccccc2)C(=O)N[C@@H](Cc2ccccc2)COC1=O", "activity change, negative = inhibition": "inactive: 0.116%"}
